# Among all 370,000 compounds or so, about 150 (0.041%) were called active. The inconclusive results got no clear call from the source; some entries with a clear call stand among them for comparison. Calls come from the whole dose curve; as a rule, active = well fitted inhibition curve with a large enough effect; inconclusive = small, poorly fitted or top-dose-only effect; inactive = flat fitted curve, though single readings scatter. Potencies of inconclusive entries are left out as doubtful fits.
# Molecular target: Beta-lactamase (Escherichia coli (strain K12)) (UniProt P00811)
# UniProt P00811, sequence (P00811 whole entry, looked up): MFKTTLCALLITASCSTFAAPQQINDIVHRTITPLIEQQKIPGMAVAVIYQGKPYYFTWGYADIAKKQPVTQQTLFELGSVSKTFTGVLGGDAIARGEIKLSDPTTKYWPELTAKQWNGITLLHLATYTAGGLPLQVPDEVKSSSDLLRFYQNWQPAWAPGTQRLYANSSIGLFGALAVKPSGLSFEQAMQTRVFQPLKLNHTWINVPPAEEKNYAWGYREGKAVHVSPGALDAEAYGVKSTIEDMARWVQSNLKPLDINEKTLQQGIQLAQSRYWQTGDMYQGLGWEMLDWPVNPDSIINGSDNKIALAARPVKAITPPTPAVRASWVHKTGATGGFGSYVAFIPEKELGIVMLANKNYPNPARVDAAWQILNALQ
# Assay: qHTS Inhibitors of AmpC Beta-Lactamase (assay with detergent); note: nearly all actives have a fitted effect of over 25% in size;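 for activity change, negative = inhibition: 0% = no-compound wells and -100% = no-enzyme wells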
# Settings: AmpC hydrolysis of nitrocefin, absorbance 480 nm, 0.01% Triton; activity change, negative = inhibition: at 114 µM (top of the series)
# In short: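 AmpC (5.3 nM in the dispensed reagent) in 20 mM phosphate pH 7.0 with 0.01% (detergent screen) or 0.0001% Triton X-100 was preincubated with compounds for 15 min at room temperature. Nitrocefin was then added from an 800 uM solution, and hydrolysis was followed at 480 nm.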
# Potency is the fitted concentration of half-maximal effect; tags give direction and shape of the fitted curve.
SMILES,Potency,"activity change, negative = inhibition"
COc1ccc(NC(=O)CN2CCN(c3ccccc3C)CC2)cc1,"inconclusive [inhibitor, full curve, poor fit]",–
COc1cc(C(=O)NCC(c2ccco2)N2CCCC2)ccc1OCc1c(C)noc1C (configuration not stated),–,inactive: -5.64%
Cc1ccc(-n2ncc3c2CC(C)(C)CC3NC(=O)CN2CCCC2=O)cc1 (configuration not stated),–,inactive: -2.41%
Cc1ccc(C(=O)/C=C/Nc2ccc([N+](=O)[O-])cc2Br)cc1,"inconclusive [inhibitor, full curve]",–
N=C1SCC(=O)N1c1nc(-c2ccccc2)cs1,"inconclusive [inhibitor, partial curve, poor fit]",–
COCCn1c(SCC(=O)c2ccccc2)nc2c(c1=O)SCC2,–,inactive: -3.32%
COc1cccc(NC(=O)CN(C)C(=O)CCCNC(=O)c2ccc(Cl)cc2)c1,"inconclusive [inhibitor, partial curve, poor fit]",–
CCC(CC)NC(=O)Nc1ccccc1C,"inconclusive [inhibitor, single point]",–
CCOc1ccc(CCNC(=O)Cn2ccc3cc(S(=O)(=O)N4CCCCCC4)ccc32)cc1,–,inactive: 18%
CCCCNC(=O)C1CC(c2ccccc2[N+](=O)[O-])=NO1 (configuration not stated),"inconclusive [inhibitor, full curve, poor fit]",–
Cc1ccc(S(=O)(=O)N2CCN(CCOc3ccccc3)CC2)cc1,"inconclusive [inhibitor, full curve]",–
Cc1cccc(C(C#N)c2ccc(Cl)nn2)c1 (configuration not stated),"inconclusive [inhibitor, full curve, poor fit]",–
Cc1ccc(NC(=O)COC(=O)c2ccnn2C)cc1,"inconclusive [inhibitor, full curve, poor fit]",–
CCOCCCn1c(SCC(=O)/C(C#N)=C(\C)N)nc2ccccc2c1=O,"inconclusive [inhibitor, single point]",–
CC(=O)Nc1ccccc1/C=C/c1ccc2c(C)cc(C)c(O)c2n1,–,inactive: -13.5%
CCOc1ccc(OCC)c(NC(=O)C2CCN(S(=O)(=O)c3cccnc3)CC2)c1,"inconclusive [inhibitor, partial curve, poor fit]",–
COc1ccc(C(=O)Nc2nnc(SCC(=O)NC3CC3)s2)cc1,–,inactive: 6.83%
O=C(NC1CCCCC1)c1ccc(-n2cnnn2)cc1,–,inactive: 5.98%
C[C@]12C=CC(=O)C=C1CCC1C3CC[C@](O)(C(=O)CO)[C@@]3(C)CC3OC312 (some centres not stated),"inconclusive [inhibitor, single point]",–
CCOc1cc(NC(=O)c2ccco2)c(OCC)cc1NC(=O)CCC(=O)NCc1cccnc1,"inconclusive [inhibitor, single point]",–
CCOc1ccccc1NC(=O)C1CCN(S(=O)(=O)c2cccc3nonc23)CC1,–,inactive: 8.65%
CCn1c(SCC(=O)c2c[nH]c3ccccc23)nnc1-c1cccs1,"inconclusive [inhibitor, partial curve]",–
COC(=O)c1c(NC(=O)c2ccccc2)sc(C(=O)c2ccccc2)c1C,–,inactive: -10.6%
O=C1C=CC(=O)C(C2=C3C(=O)N(CCc4ccccc4)CC(=O)N3CCC2)=C1,"inconclusive [inhibitor, partial curve, poor fit]",–

SMILES,Potency,"activity change, negative = inhibition"
COCCNC(=O)CN(C(=O)CCC(=O)Nc1ccccn1)c1ccc(F)cc1,"inconclusive [inhibitor, partial curve, poor fit]",–
COc1ccccc1-n1c(-c2ccccc2)c[nH]c1=S,–,inactive: 5.62%
COc1ccc(N2CCCCn3c2nc2c3c(=O)n(C)c(=O)n2C)cc1,"inconclusive [inhibitor, partial curve, poor fit]",–
Cc1ccsc1/C=C1\SC(N2CC(C)OC(C)C2)=NC1=O (configuration not stated),–,inconclusive: -18.9% [inhibitor]
Cc1ccc(NC(=O)NC(=O)CN2C(=O)NC3(CCCCCCC3)C2=O)c(C)c1,"inconclusive [inhibitor, partial curve]",–
COc1ccc(NC(C)=O)cc1NC(=O)CSc1nnc(C2CCCCC2)n1N,"inconclusive [inhibitor, full curve, poor fit]",–
CN(C)c1ccc(CNc2ncnc3sccc23)cc1,–,inactive: -3.22%
O=C(C1CCC(CNS(=O)(=O)c2cccs2)CC1)N1CCN(c2ccc(Cl)cc2)CC1 (configuration not stated),inactive,–
COC(=O)c1ccccc1NC(=O)CN(c1ccc(Cl)cc1)S(=O)(=O)c1ccc(OC)cc1,–,inactive: -8.69%
Cc1ccc(SCC(=O)Nc2nnc(-c3ccco3)o2)cc1,"inconclusive [inhibitor, full curve, poor fit]",–
Cc1ccccc1CN1CCN(C(=O)CC(C)C)CC1,–,inactive: -15%
O=C(NN/C(=N/S(=O)(=O)c1ccc(Cl)cc1)c1ccccc1)c1ccc(O)cc1,–,inactive: -10.6%
COc1ccc(Cl)cc1NC(=O)COC(=O)CC(C)(C)CC1=NS(=O)(=O)c2ccccc2N1,–,inactive: -6.01%
Cc1c(Cl)cccc1NC(=O)CCn1cnnn1,–,inactive: -2.94%
Cc1cc(NC(=O)C(C)SCC(=O)OC(C)C(=O)Nc2ccc(F)cc2Cl)no1 (configuration not stated),"inconclusive [inhibitor, full curve, poor fit]",–
C#Cc1ccc(CN2CCN(CCc3ccccc3)C(CCO)C2)cc1 (configuration not stated),"inconclusive [inhibitor, partial curve, poor fit]",–
CCCCn1nc(C(=O)NNC(=O)c2ccncc2)c2ccccc2c1=O,–,inactive: 3.36%
O=c1cc2nc(-c3ccccc3F)nc(SCc3ccc(Br)cc3)n2[nH]1,–,inactive: 3.6%
CCCNC(=O)c1ccc(N2CCC3(CC2)CC(c2cccc(Br)c2)=NO3)c(NC(=O)c2cccc(OC)c2)c1,"inconclusive [inhibitor, single point]",–
CCOc1nc(-c2ccccc2)c2cc(C)ccc2n1,"inconclusive [inhibitor, partial curve]",–
COc1ccc(NC(=O)CSc2nnc(-c3nonc3NC(C)=O)n2C)cc1Cl,–,inactive: -2.42%
O=S(=O)(c1ccccc1)N1CCC(O)(CSc2ccccc2)CC1,–,inactive: -2.36%
COc1cccc(CNC(=O)CCC2CCCN(C(=O)c3cccc4c(C)c(C)[nH]c34)C2)c1 (configuration not stated),–,inactive: 10.2%

# From PubChem BioAssay AID485294 (National Center for Advancing Translational Sciences (NCATS), 2010)
